In all, about 310,000 compounds went through this assay and about 14,000 (4.5%) showed an effect of 50% or more. The effect is printed as a negative number. Some of the results follow.
Target: human ether-à-go-go-related gene (hERG) potassium channel (human, UniProt Q12809)
Assay: primary screen, population patch clamp on CHO cells stably expressing hERG
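Further: peak tail current of the secondary pulse compared with the same well before compound.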

Chain of human ether-à-go-go-related gene (hERG) potassium channel (Q12809 whole entry, looked up): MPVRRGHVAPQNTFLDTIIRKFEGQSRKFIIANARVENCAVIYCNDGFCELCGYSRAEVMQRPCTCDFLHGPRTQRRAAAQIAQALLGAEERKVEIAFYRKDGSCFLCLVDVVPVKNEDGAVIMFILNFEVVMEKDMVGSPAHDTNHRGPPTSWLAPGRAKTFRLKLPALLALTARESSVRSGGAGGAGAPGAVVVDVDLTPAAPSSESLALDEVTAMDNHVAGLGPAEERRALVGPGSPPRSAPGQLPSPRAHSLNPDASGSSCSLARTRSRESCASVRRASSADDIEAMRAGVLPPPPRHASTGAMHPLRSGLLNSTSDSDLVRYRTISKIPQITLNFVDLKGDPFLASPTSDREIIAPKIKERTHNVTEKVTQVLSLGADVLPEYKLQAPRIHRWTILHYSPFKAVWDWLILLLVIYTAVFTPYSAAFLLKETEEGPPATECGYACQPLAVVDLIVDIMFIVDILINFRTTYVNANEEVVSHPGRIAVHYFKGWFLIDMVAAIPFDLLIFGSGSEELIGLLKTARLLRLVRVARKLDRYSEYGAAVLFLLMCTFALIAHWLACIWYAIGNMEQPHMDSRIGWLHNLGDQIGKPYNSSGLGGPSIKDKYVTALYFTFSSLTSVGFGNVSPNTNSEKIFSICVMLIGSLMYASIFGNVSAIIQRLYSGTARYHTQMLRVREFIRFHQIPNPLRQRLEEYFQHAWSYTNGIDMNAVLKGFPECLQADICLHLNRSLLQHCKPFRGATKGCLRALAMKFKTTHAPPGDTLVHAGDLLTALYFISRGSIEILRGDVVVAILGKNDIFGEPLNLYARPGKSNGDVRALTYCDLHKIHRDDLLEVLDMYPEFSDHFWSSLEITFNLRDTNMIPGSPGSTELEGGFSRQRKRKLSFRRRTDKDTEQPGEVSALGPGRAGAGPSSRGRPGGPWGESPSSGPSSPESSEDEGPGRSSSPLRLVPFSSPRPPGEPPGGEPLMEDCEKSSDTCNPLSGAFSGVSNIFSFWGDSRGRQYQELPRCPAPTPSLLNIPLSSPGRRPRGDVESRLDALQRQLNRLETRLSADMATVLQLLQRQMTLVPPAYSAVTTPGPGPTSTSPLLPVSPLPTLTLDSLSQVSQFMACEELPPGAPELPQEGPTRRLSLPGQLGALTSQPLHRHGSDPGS

Compared with `O=C(CCCCCCCC(=O)NNC(=O)Nc1ccccc1)NNC(=O)Nc1ccccc1`, `O=C(Nc1ccccc1)N1CCCc2ccccc21` is lower in “hERG current change (%, negative = inhibition) at 10uM” value: 12.2% for the first, -79.2% for the second.

Compared with `CCCCCN(C(=O)CCC(=O)OCc1ccc(C(C)C)cc1)c1c(N)n(CCCC)c(=O)[nH]c1=O`, `CCOc1ccc(NC(=O)CSc2nc3ccccc3c(=O)n2CCCC(=O)NCC2CCCO2)cc1` (centres unmarked) is higher in “hERG current change (%, negative = inhibition) at 10uM” value: 0.783% for the first, 3.34% for the second.

First: CCOC(=O)CNS(=O)(=O)Cc1ccccc1
Second: CNC(=O)CN(Cc1ccccc1)S(=O)(=O)c1ccc(Cl)cc1
The “hERG current change (%, negative = inhibition) at 10uM” value of the first is higher: 6.87% for the first, -11.4% for the second.

First: COc1ccccc1C1=NOC(COc2ccc3c(C)cc(=O)oc3c2)C1 (centres unmarked)
Second: COc1ccc(OCc2ccc(-c3nc4ccccc4c(=O)n3N)o2)cc1
The “hERG current change (%, negative = inhibition) at 10uM” value of the first is higher: -6.41% for the first, -23.5% for the second.

First: COc1cc(O)c(C(CC(=O)N2CCN(c3ccccc3)CC2)c2ccc3c(c2)OCO3)c(OC)c1 (centres unmarked)
Second: COc1ccc(OC)c2c(C)cc(N3CCN(C(=O)c4ccc(F)cc4)CC3)nc12
The “hERG current change (%, negative = inhibition) at 10uM” value of the first is higher: 11.9% for the first, -20.8% for the second.

Compared with `COc1ccc(CC(=O)OCC(=O)Nc2ccc(N3CCOCC3)cc2)cc1`, `COc1ccc(C(CNC(=O)COc2ccccc2C)N2CCCCC2)cc1` (centres unmarked) is lower in “hERG current change (%, negative = inhibition) at 10uM” value: -11.8% for the first, -20.7% for the second.

Compared with `CCCC[N+]1(C)C2CC(OC(=O)C(CO)c3ccccc3)CC1C1OC12.[Br-]` (centres unmarked), `COC(=O)c1ccccc1NC(=O)CSc1nc2ncccc2[nH]1` is higher in “hERG current change (%, negative = inhibition) at 10uM” value: 3.26% for the first, 13.5% for the second.

Compared with `Cc1ccccc1NC(=S)NC(NC(=O)COc1ccccc1)C(Cl)(Cl)Cl` (centres unmarked), `Cc1ccnc(NC(=O)CC(NC(=O)c2ccccc2Cl)c2ccccc2)c1` (centres unmarked) is lower in “hERG current change (%, negative = inhibition) at 10uM” value: 22.1% for the first, -16.3% for the second.

First: CCOc1ccc(NC(=O)C(NC(=O)C2CCC(C)CC2)C(C)C)cc1 (centres unmarked)
Second: COc1ccc(C(=O)NC(C)c2nnc(SCC(=O)NC3CCCC3)n2C)cc1 (centres unmarked)
The “hERG current change (%, negative = inhibition) at 10uM” value of the first is higher: 11.7% for the first, 4.98% for the second.

Going from `CCSc1ccc2nnc(-c3ccc(F)cc3)n2n1` to `CCc1nnc2n1N=C(c1ccc(OC)cc1)CS2`, the “hERG current change (%, negative = inhibition) at 10uM” value rises from -55.6% to -28.1%.

Compared with `CN(C)S(=O)(=O)N1CCC(Oc2cccc(C(=O)N3CCCCCCC3)c2)CC1`, `CC(=O)N1CCN(S(=O)(=O)c2cccc(C(=O)NCCC3=CCCCC3)c2)CC1` is lower in “hERG current change (%, negative = inhibition) at 10uM” value: 4.1% for the first, -8.54% for the second.

Compared with `CC(=O)N1CCN(C(=O)c2ccc(Cl)c(S(=O)(=O)N3CCc4ccccc43)c2)CC1`, `Cc1ccccc1C(=O)Nc1ccccc1C(=O)N1CCC(C)CC1` is higher in “hERG current change (%, negative = inhibition) at 10uM” value: -27% for the first, 9.34% for the second.

First: Cc1ccc(C(c2c(C)n(C)n(-c3ccccc3)c2=O)c2c(C)n(C)n(-c3ccccc3)c2=O)s1
Second: O=c1c2ccccc2nc(Cc2ccccc2)n1-c1ccccc1
The “hERG current change (%, negative = inhibition) at 10uM” value of the first is higher: -4.34% for the first, -20.9% for the second.

Going from `COc1cccc(C(c2nnnn2Cc2ccccc2)N2CCN(C(=O)c3ccco3)CC2)c1OC` (centres unmarked) to `O=C(CNC(=O)/C=C/c1ccccc1)N=Nc1c(O)n(Cc2ccccc2)c2ccccc12`, the “hERG current change (%, negative = inhibition) at 10uM” value falls from -30.2% to -35.4%.

Compared with `O=C(N[C@H]1CC1c1ccccc1)c1ccc([N+](=O)[O-])cc1` (some centres unmarked), `O=C(Nc1ccc(Cl)cn1)c1ccc(COc2ccccc2Br)o1` is higher in “hERG current change (%, negative = inhibition) at 10uM” value: -6.56% for the first, 8.82% for the second.

Going from `Cc1onc(C(=O)/C=C/N(C)C)c1C(=O)Nc1nccs1` to `O=C(O)c1sccc1NC(=O)c1c(Cl)cccc1Cl`, the “hERG current change (%, negative = inhibition) at 10uM” value falls from 8.26% to 5.11%.

First: COc1ccc(C(=O)NCCN2CCCC2)cc1[N+](=O)[O-]
Second: Cc1nc2nc(SCC(=O)NCCCN3CCCCC3)nn2c(C)c1Cc1ccccc1
The “hERG current change (%, negative = inhibition) at 10uM” value of the first is lower: -15.2% for the first, -4.98% for the second.

Going from `Cl.Cn1nnnc1SCCNCc1ccccc1F` to `Cc1ccc(C(C)C)c(OCCCNCc2cccnc2)c1.Cl`, the “hERG current change (%, negative = inhibition) at 10uM” value falls from -0.9% to -37.5%.

First: CCCCCC(=O)NC(NC(=S)N1CCOCC1)C(Cl)(Cl)Cl (centres unmarked)
Second: CC1(C(=O)NNC(=S)NCc2ccco2)CC1(Cl)Cl (centres unmarked)
The “hERG current change (%, negative = inhibition) at 10uM” value of the first is lower: 6.03% for the first, 29% for the second.

Going from `C=Cc1ccc(CSc2cc(C)nc3nc(C)nn23)cc1` to `Cc1ccc(CCNC(=O)c2cc(-c3ccncc3)nc3ccccc23)cc1`, the “hERG current change (%, negative = inhibition) at 10uM” value rises from -36.2% to -6.88%.

First: O=C(N/N=C/c1ccccc1)c1n[nH]c2c1CCCC2
Second: O=C(Nc1ccc(N2CCCC2)c(Cl)c1)c1cccnc1
The “hERG current change (%, negative = inhibition) at 10uM” value of the first is higher: 10.9% for the first, -12.6% for the second.

First: O=C(CN1C(=O)NC2(CCCCCC2)C1=O)Nc1ccc(Cl)cc1Cl
Second: CC(=O)Nc1ccc(S(=O)(=O)NCC(=O)OCC(=O)N2CCCCCC2)cc1
The “hERG current change (%, negative = inhibition) at 10uM” value of the first is lower: 3.07% for the first, 6.34% for the second.

Compared with `CC(OC(=O)c1nsc(Cl)c1Cl)C(=O)NC(C)(C)C` (centres unmarked), `COC(=O)c1c(C)[nH]c(C(=O)NCc2ccco2)c1C` is lower in “hERG current change (%, negative = inhibition) at 10uM” value: 14.9% for the first, 0.67% for the second.

Compared with `COC(=O)C1C(=O)c2c([nH]c(C(=O)OC3CCCC3)c2C)CC1C` (centres unmarked), `CCOC(=O)N1CCN(C(=O)COC(=O)C2CCN(S(=O)(=O)c3c(C)c(C)cc(C)c3C)CC2)CC1` is lower in “hERG current change (%, negative = inhibition) at 10uM” value: -3.87% for the first, -51.9% for the second.

Compared with `Cn1cccc1C(=O)/C(C#N)=C/c1ccc(F)cc1`, `COc1ccc(-c2cc(C3CCN(Cc4ccc([N+](=O)[O-])cc4)CC3)[nH]n2)cc1` is lower in “hERG current change (%, negative = inhibition) at 10uM” value: 4.01% for the first, -73% for the second.

Going from `CCCn1c(SC2C(=O)CC(C)(C)CC2=O)nc2c1c(=O)n(C)c(=O)n2C` to `COc1ccc(CCNC(=O)c2ccc(CS(=O)(=O)c3ccc(Cl)cc3)o2)cc1OC`, the “hERG current change (%, negative = inhibition) at 10uM” value falls from 8.98% to -11.7%.

Compared with `O=C(CCCCCNC(=O)c1ccccc1)N=Nc1c(O)[nH]c2c(Br)cc(Br)cc12`, `CCOCCCNC(=S)N(Cc1ccco1)Cc1cc2cc3c(cc2[nH]c1=O)OCCO3` is lower in “hERG current change (%, negative = inhibition) at 10uM” value: -9.32% for the first, -11.7% for the second.

First: CC1CCCC(NC(=O)CN(C)CC(=O)Nc2cccc(F)c2)C1C (centres unmarked)
Second: COCCN(C(=O)C1CCC1)c1nnc(-c2cccnc2)s1
The “hERG current change (%, negative = inhibition) at 10uM” value of the first is higher: 9.81% for the first, -0.683% for the second.

From publication PMC4336329 (PLoS ONE, 2015)
